# According to the supplement of paper PMC3334620:
# Over roughly 33,000 sequences, “E-score (-0.5 to 0.5)” has its median near -0.043; the highest 2% begin near 0.37. Some of the results follow.
# Target: T1, Upc2 (UniProt Q12151)
# T1 sequence: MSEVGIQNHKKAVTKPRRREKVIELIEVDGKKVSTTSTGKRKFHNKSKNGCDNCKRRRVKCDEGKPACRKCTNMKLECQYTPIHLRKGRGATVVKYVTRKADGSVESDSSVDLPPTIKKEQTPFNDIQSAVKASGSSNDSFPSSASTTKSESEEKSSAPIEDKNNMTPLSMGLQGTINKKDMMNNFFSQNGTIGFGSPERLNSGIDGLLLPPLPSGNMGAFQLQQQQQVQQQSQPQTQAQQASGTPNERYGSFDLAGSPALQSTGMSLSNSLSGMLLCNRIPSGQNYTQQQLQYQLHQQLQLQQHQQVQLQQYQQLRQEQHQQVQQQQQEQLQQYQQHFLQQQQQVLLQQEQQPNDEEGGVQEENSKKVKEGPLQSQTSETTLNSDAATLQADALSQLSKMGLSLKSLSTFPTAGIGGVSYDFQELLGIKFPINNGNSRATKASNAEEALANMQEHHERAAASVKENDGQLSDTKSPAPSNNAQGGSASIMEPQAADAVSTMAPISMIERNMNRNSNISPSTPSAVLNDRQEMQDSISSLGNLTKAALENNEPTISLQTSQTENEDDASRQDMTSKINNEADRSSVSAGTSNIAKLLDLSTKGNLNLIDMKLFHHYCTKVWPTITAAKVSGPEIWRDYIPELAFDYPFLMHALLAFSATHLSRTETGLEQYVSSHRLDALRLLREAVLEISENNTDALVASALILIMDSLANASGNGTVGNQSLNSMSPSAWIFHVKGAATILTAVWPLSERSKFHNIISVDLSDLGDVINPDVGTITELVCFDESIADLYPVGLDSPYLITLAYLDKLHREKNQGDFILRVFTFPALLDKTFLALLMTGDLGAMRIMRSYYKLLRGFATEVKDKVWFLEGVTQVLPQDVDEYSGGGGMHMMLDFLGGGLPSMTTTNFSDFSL
# Test: PBM E-score (8-mer binding enrichment) (E-score (-0.5 to 0.5)); higher = stronger / more preferred TF binding; most listed sequences are background and not binding sites
# Settings: protein concentration: 200 nM; construct: GST-full length
# Procedure, shortened: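 E-scores (a modified Wilcoxon-Mann-Whitney statistic) were assigned by the Universal PBM Analysis Suite to every ungapped eight-base word pooled with its reverse complement. The input came from universal all-10-mer Agilent arrays made double-stranded by primer extension and probed with GST-tagged yeast transcription factors at about 100-200 nM. Fluorescent anti-GST detected bound protein, and masliner normalised the scans.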
row,Sequence,PBM E-score
1,AATCGAGC,0.286
2,GGTGTTCA,0.00797
3,AGCAGCAT,-0.0616
4,CGAGCTGA,0.196
5,AGGTGACC,-0.281
6,ACTACTCC,-0.0816
7,GATGTATA,-0.0388
8,TCCTGGAA,-0.144
9,CCCACACC,-0.0498
10,CTAGCGTA,0.103
11,AGACTAGC,-0.205
12,AAGTTGCT,-0.00267
13,GTACCTAC,0.0442
14,ACCTGTTA,0.0801
15,CTCACCGA,-0.0555
16,ACTTTTGC,0.0781
17,GGACACTA,-0.118
18,ACACCCAA,-0.0152
19,AGTATCGA,0.00655
20,AGGCATTG,0.0865
21,CGACAGCG,0.133
22,TACGAATA,0.415
23,ACAGGACA,0.0482
24,CGCACTGA,-0.163
25,ACCCGCCG,0.0788

row,Sequence,PBM E-score
1,GCTAAGGA,-0.205
2,CCTTTGAC,-0.212
3,CTCTTGGC,-0.271
4,CGCGTCAC,-0.0461
5,ATTTCAGG,-0.0274
6,GCCATTGA,-0.0727
7,CCAACTTA,-0.063
8,GAAGCTGC,-0.142
9,ATGTTGGC,-0.107
10,AAGTGACC,-0.0831
11,CGAAGGCA,0.0006
12,AGAATGCG,0.122
13,AGCAGCCG,-0.0553
14,TCAGCCAA,-0.177
15,ATCTCGCA,0.211
16,AAGACTAA,-0.126
17,ATGTCACA,-0.137
18,TGATGGAA,-0.186
19,AATGTGAG,-0.135
20,GTTTAAAA,0.242
21,CTAGTAAA,-0.00018
22,ACAGGCGA,-0.251
23,CGACTGCC,0.0119
24,ATTAAACG,0.461
25,ACAGCTCG,0.181

row,Sequence,PBM E-score
1,GACCTTCA,-0.128
2,AAGGACGT,0.0675
3,TATGGGGA,-0.00994
4,ACATGCCG,0.074
5,TAGCGCTA,0.26
6,ATCGGTAC,0.228
7,ATCATAGA,-0.0573
8,CTATCGTC,-0.0375
9,CTGGCTTC,-0.113
10,ACGAAAAC,0.291
11,AAAGTCGT,0.244
12,AAGCGGCT,-0.0364
13,ATCCCAAC,0.0433
14,CAAAACTG,-0.0519
15,CGCTTCAA,0.181
16,CCTTTCGA,0.0842
17,GCGCTTTA,0.179
18,AGTTCTTC,0.099
19,ACTACACG,0.209
20,ATCTTTTG,0.11
21,AGTTACTA,0.0304
22,CGATCAAG,-0.00683
23,GACTAGGA,-0.176
24,CTGGCCTA,-0.108
25,GAGCAACA,-0.0943

row,Sequence,PBM E-score
1,CACGGCTA,-0.137
2,TCGGACCA,-0.0452
3,CTATGACC,0.104
4,AACTATCG,0.107
5,GCGAGATA,0.237
6,ACGAGAGC,0.375
7,AGGGCTAA,-0.163
8,ACTAGCTA,0.114
9,CGAAGACA,0.0359
10,AGGCACTG,-0.0625
11,CCTGCAAG,-0.108
12,TGACGGAA,-0.0592
13,AGAGCCCT,-0.182
14,AACGCGCT,0.152
15,CCACTGGC,-0.217
16,GCAAATTA,-0.0486
17,CGGCGAGC,0.144
18,GCGATAAA,0.128
19,ACTGGGAG,-0.223
20,AGCGGGGG,-0.3
21,CAGGCGAA,-0.155
22,AATAGTAA,-0.107
23,AAGTTGCC,-0.00513
24,ATGGCCCG,-0.118
25,AAGGCTCA,-0.206

row,Sequence,PBM E-score
1,TACTCTAA,0.052
2,AGGGGTCA,-0.239
3,CATTCGTA,0.416
4,ACATCATG,-0.215
5,GCTGACAC,-0.0878
6,AAAGCGTT,0.00802
7,CCCGTAGG,-0.0508
8,CGAGTTAG,0.16
9,GACAGGGA,-0.125
10,CGCTCCCA,-0.0119
11,CCTAACTA,-0.161
12,CTACACAA,0.104
13,GGCACCCA,-0.148
14,ATAGCCGG,-0.12
15,CCTCCATA,-0.0927
16,GCGTCGTA,0.468
17,CCTGCAGA,-0.216
18,AACCGCCC,-0.0676
19,CACAATGC,-0.251
20,GTTTGTAA,0.115
21,CCCAGATC,-0.135
22,ACATTCTG,-0.0694
23,CAAGAGTC,-0.103
24,GCATAACC,0.00112
25,ATACCCGG,-0.0285

row,Sequence,PBM E-score
1,ATGGAAAC,-0.158
2,CACTGGGG,-0.271
3,CAGACAAA,0.0499
4,GACTGCCC,-0.164
5,GATGGAGC,-0.112
6,AAGGCTAA,0.0868
7,GAAAGCAC,0.084
8,ATGAATCG,0.157
9,GCAGTGGA,-0.123
10,ACACTTAG,-0.116
11,AGCGGGAC,-0.268
12,GATTACGA,0.334
13,CGGCTGAG,-0.216
14,CTCCCGAG,0.0107
15,CGAGTGCA,0.143
16,AGCTTATC,-0.132
17,GCGGTGGA,0.0832
18,AGGCGGAT,-0.0686
19,CCTTACTC,-0.0448
20,ATTGCGAC,0.143
21,CACTTCTC,0.0285
22,GGTGAGCA,-0.182
23,CATAGCAA,-0.235
24,CTCGTAAG,0.43
25,GCATGTAC,0.177

row,Sequence,PBM E-score
1,ACGCAGGC,-0.0845
2,AAGTCCTG,-0.298
3,TAAGGTGA,-0.056
4,CGAAGTAG,0.00964
5,CTTTACGA,0.471
6,CGGTACCA,-0.0953
7,ATATTAAA,0.176
8,AAAAAGGA,-0.0656
9,TGTTAAAA,0.0512
10,CCTGAAGC,-0.175
11,CTCAGGTA,-0.136
12,ACGGCTCC,0.138
13,ATTAATAC,0.0259
14,ACAACGAC,0.258
15,GAGGCCTC,0.0386
16,CCTAGGCA,-0.319
17,ACGTTAGC,0.152
18,ATGTACTG,-0.177
19,CAGTAAAC,0.271
20,CTAGATAC,0.22
21,AATCGGAG,-0.185
22,CAAGACAA,-0.0401
